From the RNAGym collection of RNA variant scans (doi:10.7554/elife.90254)
Read counts are not given, so values of variants with three or more changes are uncertain.

B1: LINE1-mini (parent)
chain: GGCAGAGCUCAACACAGCGUGGCAAAGUGGCUGUGGCUAGACUGCC

Variants of: B1
Assay: self-cleavage, relative activity (ratio to wild type); higher = more cleavage; in vitro, sequencing; the parent is a self-cleaving ribozyme
Variant A4U G19C C42G has a self-cleavage of 0.02. In the case of A4U U38C C45G, the self-cleavage is reported as 0.01. A4U G17C C31A gave a self-cleavage of 0.12. With G5A A6C G36A C42G U43A the self-cleavage was 0.06. A4U G5A C37A G44U showed a self-cleavage of 0.02. With G5A A14G U32C A39U C45G the self-cleavage was 0. A4U G21C A41C gave a self-cleavage of 0.09. Variant A4U G21A C45U has a self-cleavage of 0.17. Work on A4U C18G G21C C23U yielded a self-cleavage of 0.12. Work on G5A A11G G21U A24U yielded a self-cleavage of 0. In the case of G5A A6C C10U U38A A41U, the self-cleavage is reported as 0. Variant A4U G5A A16C G17U U32A G35U has a self-cleavage of 0.18. In the case of A4U G22C G27A C46A, the self-cleavage is reported as 0.14. Work on G5A A26C U34A yielded a self-cleavage of 0.23. With A4U G7A C13G A16G G33A the self-cleavage was 0.06. For G5A A6C G29A C42A, the self-cleavage was 0.02. For A4U G7U A11U A14U G21U G27U G29U, the self-cleavage was 0.34. With A4U G5A G27U C42A the self-cleavage was 0.03. Variant A4U G5U G33C C45U has a self-cleavage of 0.04. Variant A4U G5A A24U A25G G36U C46A has a self-cleavage of 0.04. Work on A4U G36A C42A yielded a self-cleavage of 0.05. Variant A4U G19C C45U has a self-cleavage of 0.02. Work on A4U G17U A24G G29C yielded a self-cleavage of 0.05. With A4U G7U C13A G17A the self-cleavage was 0.26. Variant A4U U9A A12G U38A has a self-cleavage of 0.03. With A4U G27C U28A the self-cleavage was 0.15. Work on G5A A14G G19U U28A G33C U43A yielded a self-cleavage of 0.01. With G5A A6G A14C A16G G29U G33A the self-cleavage was 0.12. G5A A14G C15A A25U showed a self-cleavage of 0.04. A4U G27C G33U C45G gave a self-cleavage of 0.06. In the case of A4U G7C G40A C45U, the self-cleavage is reported as 0.03. Work on A4U C13U U38A yielded a self-cleavage of 0.43. Variant A4U C23A A25C G30C C37U has a self-cleavage of 0.03. With G5A A11U A12U C15G G17C G36C the self-cleavage was 0.01. With A4U U20A C37A the self-cleavage was 0.02. For A4U C15G C42U, the self-cleavage was 0.02. In the case of A4U C37A C46A, the self-cleavage is reported as 0.22. A4U G7A G21U G36A gave a self-cleavage of 0.05. Variant A4U C15A A16G C18G G22C has a self-cleavage of 0.03. In the case of A4U G17C G22C, the self-cleavage is reported as 0.05. Work on A4U G22U A39G G40C yielded a self-cleavage of 0.03. In the case of G5A A41U G44A C46U, the self-cleavage is reported as 0.15. Variant A4U G36C C37U has a self-cleavage of 0.07. A4U C18A G27A G29U G33A gave a self-cleavage of 0.13. Work on A4U C13U A24C G29C yielded a self-cleavage of 0.07. Variant A4U C18G U32A A39C G44A has a self-cleavage of 0.01. In the case of G5A A26U A41U, the self-cleavage is reported as 0.11. A4U G21U G22A showed a self-cleavage of 0.56. With G5A A14U G21C A24U C37U G40U A41U the self-cleavage was 0.14. Work on A4U G30U G40A yielded a self-cleavage of 0.04. For G5A A24U U43A, the self-cleavage was 0.11. Work on A4U G7U G22U C23G G40U yielded a self-cleavage of 0.37. A4U C13U A39C C45U gave a self-cleavage of 0.2. G5A A6U C13U G21C gave a self-cleavage of 0.15. G5A A12C G36A showed a self-cleavage of 0.17. With G5A A14U G22A C31A the self-cleavage was 0.08. With A4U U38G G40C the self-cleavage was 0.03. A4U G7A A24U G30A G33C showed a self-cleavage of 0.14. Work on G5A A16C U38C yielded a self-cleavage of 0.09. Work on A4U C15G C18U yielded a self-cleavage of 0.04. In the case of A4U U32C U43G, the self-cleavage is reported as 0.17. A4U G21A G29A showed a self-cleavage of 2.71. In the case of G5A A16G G21U G22A U28G, the self-cleavage is reported as 0.07. G5A A11G C23U A26U A41U gave a self-cleavage of 0.03. With A4U G5U A11U G40U U43G the self-cleavage was 0.01. For A4U G22C C31U, the self-cleavage was 0.07. With G5A A14U A16U C18A G19A C42U the self-cleavage was 0.04. With A4U G19C G35A A41U the self-cleavage was 0.02. Variant A4U C15A C18A U38A has a self-cleavage of 0.02. A4U C31A G35U gave a self-cleavage of 0.05. For A4U U9A C13A C42A, the self-cleavage was 0.2. Work on A4U C18A G40C yielded a self-cleavage of 0.02. Variant A4U G27A G29C has a self-cleavage of 0.17. For A4U C15A G29A, the self-cleavage was 0.04. In the case of A4U C13U C37U, the self-cleavage is reported as 0.08. Variant A4U G21U G29U G33U U34C has a self-cleavage of 0.09. Work on G5A A6C C10A G22A G27U G35A yielded a self-cleavage of 0.01. A4U G5C G7C G19U U38A gave a self-cleavage of 0.54. With G5A A14U U20G G35C the self-cleavage was 0.1. Variant G5A A16G G19A C23U G29A U43G C46U has a self-cleavage of 0. Work on A4U C15G U34G yielded a self-cleavage of 0. With A4U U20A G27U G29U the self-cleavage was 0.01. In the case of A4U C31U A39U, the self-cleavage is reported as 0.02. Work on A4U C13U C15A C18U G40C yielded a self-cleavage of 0.04. A4U C13U C31A C46U gave a self-cleavage of 0.24. With A4U G22U C31A G40U G44A the self-cleavage was 0.02. Work on A4U G5A C13A G19U A24U G35A yielded a self-cleavage of 0.02. For G5A A12G U43A, the self-cleavage was 0.09. Variant G5A A12G C31U G36U has a self-cleavage of 0. Variant A4U G7C U28G G29A U38A A39U has a self-cleavage of 0.12. For A4U G7A G17C G21U G35U C37U C42A C46U, the self-cleavage was 0.19. With G5A A12C C42A the self-cleavage was 0.01. Variant A4U G17C U38C has a self-cleavage of 0.14. G5A A6C C10A C15A gave a self-cleavage of 0.03. With G5A A16C A26U the self-cleavage was 0.01. In the case of G5A A11C A14U C37A, the self-cleavage is reported as 0.03. For A4U U20G G29C, the self-cleavage was 0.05. A4U U38A C45U showed a self-cleavage of 0.07. A4U G5U U43C C45A showed a self-cleavage of 0.04. With G5A A6G C18A G27A G29A C42G the self-cleavage was 0.19. In the case of A4U G7U G29A C42U, the self-cleavage is reported as 0.03. Work on A4U G7U C10A yielded a self-cleavage of 0.07. In the case of A4U U9C G27C C42A, the self-cleavage is reported as 0.05. Variant A4U G17U U32C has a self-cleavage of 0.03. Variant A4U G5A C31G G44U has a self-cleavage of 0.03. Work on G5A A6C C18A G19A G21A G36C C37A yielded a self-cleavage of 0.07. G5A A6C A14U G21C A25U gave a self-cleavage of 0.12. Work on A4U C18G U38G yielded a self-cleavage of 0.04. Variant A4U C13U G40U has a self-cleavage of 0.04. A4U U20A G22U C23G C45A showed a self-cleavage of 0.11. In the case of A4U U20G A25C C37G A39U, the self-cleavage is reported as 0.01. With G5A A25G U28C the self-cleavage was 0.47. With G5A A6G C8G G19U G36U the self-cleavage was 0.05. Variant A4U G27A C37A has a self-cleavage of 0.09. With G5A A14U G19U C37U the self-cleavage was 0.13. For A4U U38A A41G C45G, the self-cleavage was 0.02. For A4U G7C C13G U28A U32C, the self-cleavage was 0.07. G5A A12U C18G showed a self-cleavage of 0.04. A4U C23G C46G showed a self-cleavage of 0.04. G5A A6U U28A C37A U38C gave a self-cleavage of 0.01. With A4U G5C C15U the self-cleavage was 0.22. With G5A A26G C46A the self-cleavage was 0.02. Work on A4U G22A U38A yielded a self-cleavage of 0.02. With G5A A26U U28G the self-cleavage was 0.17. A4U G22U G27A gave a self-cleavage of 0.08. G5A A14C U20G A41C C46G gave a self-cleavage of 0.06. A4U G7U C8U U9G gave a self-cleavage of 0.04. G5A A6C G19C U38C gave a self-cleavage of 0.03. In the case of G5A A24U G35U, the self-cleavage is reported as 0.07. For G5A A39U G40U, the self-cleavage was 0.12. Work on A4U C13U G17A A24U yielded a self-cleavage of 0.06. For A4U G7U G27A G30U C37G C42U U43A, the self-cleavage was 0.02. For A4U G22A C23U C37A, the self-cleavage was 0. Variant A4U G17A G33C has a self-cleavage of 0.02. For A4U C23A G27A C46A, the self-cleavage was 0.28. In the case of A4U G5U U20G U28A C37U, the self-cleavage is reported as 0.01. A4U G5U U43G gave a self-cleavage of 0. A4U C15A G33U gave a self-cleavage of 0.08. In the case of A4U U34C U38G A41G, the self-cleavage is reported as 0.04. Work on A4U C15A U32G yielded a self-cleavage of 0.06. A4U C15A G21U gave a self-cleavage of 0.13. With G5A A6U A14U the self-cleavage was 0.29. Variant G5A A26C U38A has a self-cleavage of 0.42. A4U G7C C10G C13A U20C U28A G33A C45U gave a self-cleavage of 0.02. For G5A A16U C18A, the self-cleavage was 0.01. A4U G7C C13A C15G G30C G40U showed a self-cleavage of 0.11. A4U U20C U28A gave a self-cleavage of 0.19. Work on A4U C31A G36C G40A yielded a self-cleavage of 0.11. For G5A A24U C37A, the self-cleavage was 0.07. A4U U28C A39U G44A gave a self-cleavage of 0.03. For A4U U28A C31G G33C U34G, the self-cleavage was 0.03. A4U G21C G22A G29A C42G gave a self-cleavage of 0.01. G5A A12C G30U gave a self-cleavage of 0.02. A4U G7C C23A G33A gave a self-cleavage of 0.17. Work on A4U G19C C23U A26G G36C C37A yielded a self-cleavage of 0.45. Variant A4U G7U C23A has a self-cleavage of 0.06. In the case of A4U G27U G35A G40C, the self-cleavage is reported as 0.02. Work on A4U G19U G36U G44C yielded a self-cleavage of 0.04. In the case of A4U G5A A16G G17C G19A A24C, the self-cleavage is reported as 0.07. With G5A A11G C18A G21U A24G U28A the self-cleavage was 0.02. Variant A4U U9G C37G has a self-cleavage of 0.02. For G5A A11G C13G C15A G40C, the self-cleavage was 0.01. With A4U G5A A39G the self-cleavage was 0.04. For A4U G17U G30A, the self-cleavage was 0.09. Variant G5A A12U G44C has a self-cleavage of 0.08. G5A A6U A11C C31G U38G showed a self-cleavage of 0.01. A4U C23A G33C showed a self-cleavage of 0.05.
